PubChem BioAssay (NCI)
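Step 1: Grow cells in 96-well plates. Step 2: Expose to compound for 48 hours at 5 concentrations. Step 3: Interpolate endpoints linearly; if unreached, use highest concentration. Here, GI50 denotes the concentration required for 50% inhibition of growth. TGI is the concentration that stops growth completely.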

Tested on: NCI-H322M lung
Experiment: DTP human tumour cell line panel, 48 h

Row | Compound | GI50 [µM] | TGI [µM]
1 | O=C(NO)c1ccc(CNC(=O)[C@H]2Cc3c([nH]c4ccccc34)[C@H](c3ccccc3)N2)cc1 | 4.78 | > 23.7
2 | Cn1cc(-c2cc3nc(-c4c[nH]c5ccc(Cl)cc45)cc(N)n3n2)c2ccccc21 | 1.53 | 3.34
3 | COc1ccc(C(=O)/C=C/c2cccc(Cl)c2)cc1S(N)(=O)=O | 2.15 | 9.07
4 | O=C(Nc1ccc(F)cc1)Nc1nc2ccc([N+](=O)[O-])cc2s1 | 3.25 | 11.4
5 | COc1ccc2[nH]c(O)c(N=Nc3nc(-c4ccccc4)cs3)c2c1 | 3.99 | 23.4
